Laboratory results published in the RNAGym collection of RNA variant scans (doi:10.7554/elife.90254).
The source gives no read counts; variants with many changes may rest on few reads.

B1: LINE1-full (parent)
chain: UACGUAGGUGGUUUUCCCCUGAUAGUGCUAAGGGGGCCUGGAAGUUUGGACUGGGCAGAGCUCAACACAGCGUGGCAAAGUGGCUGUGGCUAGACUGCCUCUCUGGAUUCCUCGUCACUCAGCAGGGCAUCUCUGAGAGAAAUGCC

Variants of: B1
Assay: self-cleavage, relative activity (ratio to wild type); higher = more cleavage; in vitro, sequencing; the parent is a self-cleaving ribozyme

Variant	self-cleavage
G4A U47C C51U A94G U115C	0.71
U14C U102C A124G A138G	0.84
A78U U91A U130C	1.34
A42G G58U A129G	0.05
U12A A22G U45A U91A U112C U130A	0.67
U47C U62C A107U	0.07
U14C C37U U45C U112C	1.31
A31U A43G U87C A136G	1.31
U45C U52A A57U A77C A107G U132G A138U	0
A43G A77U U115C	1.48
C37G G40A U115C G125U	1.2
U29C G106A U132C	2.08
G48A A59G U100C U112A	0.09
U14C U85A A140G A141G	0.11
U12A U14C U23A A78G	0.31
A42G U45C U119A	0
U13C A42G U81G	1.14
U26A G105A A124G A136G	0.81
A59U U73C A78G U112C	1.41
U39C A59G U62C U102C	0
U62C U96A C128U	0
U15C A42G A140G A142G	1.58
G36A U81C U130A U132C	1.42
A22U A121G G122A A124G	0.74

Variant	self-cleavage
U1A A31U U62C	0
U20C G34A G48A U87A	0.06
U52C C71U A77G G86A	0.04
G40A A50U U85A	0.04
G10A A57G A129G A140G	1.1
A67U U100C U108C	0.13
U5C A42C A94G A121U U134C	2.16
U9A U46A C51U C76U	0.64
U9A U23C A57G	0.92
A2G U20C U62C	0
U23C U29C U52A A117U	1.39
U9C U52A U87C	0.73
U13C A30G A50G	0.3
U45C A79G C123U	0.66
A6G U52C U96A A117U	0.2
A22U A107G U112C	0.38
U13C U108C A129U	0.6
U46C C116A U119C	1.43
A2U U81C U108C	1.23
U12C A31U A43G	1.01
U39C U87C C120U	0.12
A43G A78U U132C	1.34
U15C C131U U132C	0.94
U13C U87C U108A U130C U132C	0

Variant	self-cleavage
A78G C111A A140G	0.75
U73C U87A A121G	0.18
A79U U85C G86A	0.06
A2G A30U A65G C84G A136G A141U	0.33
G32A A43G C56U U130C	0.14
G7U A69U C118A	0.04
A57U A64C G80A A129C	0.15
U47A U85C C90U G114U	0.01
A2C A22G A59G U109C	0
A6G U15A U62C A79G U85C	0
U12C U13C U104C	1.11
G4A A69U U102C C118U	0.02
U9A A30U G32A C116U	1.07
A124G U132C U134C	1.1
U23A A50C U108C A141G	0.57
U81C U100A G105A	0.89
C37A U96C G125U C131U	0.08
U13C A59G U102C A129U	0
U52C U87A U102C A142G	0.08
G21A U26C A79G U100C U102C	0
U14C U62C C128U	0.01
U14C U73C U102A G144A	2
G55C A64G A142G	0.1
U20C G27U A79U C131U	1.63

Variant	self-cleavage
U23C U52C U104C	1.91
G33U U100C A129U	1.99
A57G G58A A140G	0.09
A67C U112A A142G	0.12
U85A U108C A138G	0.15
U12C G21A U130C	1.37
C51U A65G U104A	0.06
G41A A59G G126A A141G	0.02
U12C A24G A78G U130C	2.87
U14C G72A U130A	1.46
U5C U13A U46C G135A	0.34
U62C U109A U115A	0.07
A121G U143C G144A	1.33
U26C A50G U62C U87A A117U A124G	0
U20C A64U A69U C90U U109C	0.04
A22G G35U U134C	1.3
U47A U102A U115A	1.17
A22G A31G A50G G74A U91A	0.37
A22G U62C C71U	0.04
A57G C66A U81C U109A	0.04
U12C U115C A124U A141G A142C	0
A79G U109A A141G	1.58
A2G U47C U81A U109C A136G	1.84
U1C A59G U109C C113A	0.16

Variant	self-cleavage
U5C U9A A22U U73C	0.67
A22G A42G A57G U100C	0
U12G U45A A67G	0.45
U14C U39A A107G U115C	1.84
G32C U81A U115C	2.03
U14C U39C A64G U85A U134A	0.6
A77G A78U U109A A140G	2.1
U9A U13C A140U	0.58
U47C U104C G137A	1.2
A30G A42G U112C	1.53
U5C A24G A42G	1.31
U46C G88U U102A	0.09
A59G G75A A77G U81A A124U	0.16
G53A C84U A121G	0.13
U26A U62C A64G U102A U132C	0
U39C A94U G97A A117G	0.04
U12C A77U U134C	1.19
U9C A59U A141G	0.56
U20A A59G A78U	0.08
U1C A50C A77G G105A A124G	0.77
U1C U47A U115C	1.29
G27A G53C U85A U112C	0.07
U15C U45G U73C	0
A2U A67G U96A A129C	0.51

Variant	self-cleavage
A79G U81A A136C	0.3
A78G U100A A121U	0.16
U104A A121U A124U U143G	1.9
G49U U112A A121G	0.31
A43U A64G U87C	0
U62C A94G A138G	0
U13A U23C A42G	0.61
A30G U62C U96C A142G	0
A24G U100C U109A	1.02
A2G A22U U26C U115C U130C	1.31
A24G U46C A59G U85A A129U	0
U13C A69U A140U	0.28
U14A U20C A136G	0.99
U1C A94G U102C	0.24
U5C G54A U108C U132C A142G C146U	1.92
U13C U14C G32U U87C A140G	0.3
U20C A31G U62A C63U A77U A140G	0
G53A U85A C99U U130C	0.03
G36A U46C U132C	1.64
A30G U46G U62C	0
A65U G105A U143C	0.17
U112C A124U A142G	1.83
A79G A94G U134C	0
U46A A69G U100C A124U A141G	1

Variant	self-cleavage
G10A U52A U73A G82A U132A	2.12
U23C U73A U91C U104C	1.84
U62C A69U U100A U102C	0
A57G G83A U104C	0.54
A50G A64G G126A	0.29
A57G A59G G72A A92G G114A	0.07
U14C A43C U87A U132C	0
A50U A117G A142G	1.46
A69G A121G G127A	0.76
U23C U45C A57G G89C	0
A50G U73C G126U U134A	1.57
G7A U45C A77G G105A A142G	2.17
C19U A24G U29C A69G	0
U45C A69U A77U A107G U112A	0.06
A22U A67U A117U A121G	0.29
U9A U39A G137A	1.09
U1C U26A A77G A92G U108C	0.81
U14C A67U U91C U134A	0.06
G21A A124U A142G	1.48
A50G C101U U102C U132C	0.82
G4A U20A G33A G70A C71U G144A	0.15
U9C C68U A107G A136G A141G	0.51
U39A A43G U73C U130C	0
